Experimental data as given in the supplement of paper PMC4604168 (melanoma cell lines).
The list shows a part of the results. Many values rest on one well or one pass, so single values are uncertain.

Tests used:
Experiment in all cases: cell count relative to DMSO control; melanoma cells; higher = more viable cells
Settings in all cases: library dose: standard library concentration; 72 h
SkMel28 = system: SkMel28
SkMel2 = system: SkMel2
SkMel30 = system: SkMel30
SkMel5 = system: SkMel5
UACC257 = system: UACC257
UACC62 = system: UACC62
WM115 = system: WM115
WM1716 = system: WM1716
WM1745 = system: WM1745
WM3526 = system: WM3526
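Note: cells treated in 1,536-well plates, then fixed and DAPI-stained, with nuclei counted from automated high-throughput microscope images.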

Structure (SMILES)	cell count (SkMel28)	cell count (SkMel2)	cell count (SkMel30)	cell count (SkMel5)	cell count (UACC257)	cell count (UACC62)	cell count (WM115)	cell count (WM1716)	cell count (WM1745)	cell count (WM3526)
NC1(c2ccc(-c3nc4ccn5c(=O)[nH]nc5c4cc3-c3ccccc3)cc2)CCC1 + CO[C@H]1C[C@@H]2CC[C@@H](C)[C@@](O)(O2)C(=O)C(=O)N2CCCC[C@H]2C(=O)O[C@H]([C@H](C)C[C@@H]2CC[C@@H](OCCO)[C@H](OC)C2)CC(=O)[C@H](C)/C=C(\C)[C@@H](O)[C@@H](OC)C(=O)[C@H](C)C[C@H](C)/C=C/C=C/C=C/1C [everolimus] (first compound 2 µM, partner dose 0.1 µM)	36.1%	49%	64.1%	44.2%	88.8%	75.5%	61.1%	56.5%	69.1%	53.8%
CS(=O)(=O)c1ccc(C(=O)Nc2ccc(Cl)c(-c3ccccn3)c2)c(Cl)c1 [vismodegib] + COc1cc(Nc2ncc(F)c(Nc3ccc4c(n3)NC(=O)C(C)(C)O4)n2)cc(OC)c1OC [Tamatinib] (first compound 5 µM, partner dose 2 µM)	45%	66.5%	84.6%	59.1%	75.5%	64.1%	65.3%	65%	43.9%	79.8%
C=C(c1ccc(C(=O)O)cc1)c1cc2c(cc1C)C(C)(C)CCC2(C)C [Bexarotene] + Nc1nc(F)nc2c1ncn2[C@@H]1O[C@H](CO)[C@@H](O)[C@@H]1O [fludarabine] (first compound 10 µM, partner dose 1 µM)	3.92%	1.71%	23.6%	28.6%	41.3%	90.3%	107%	89%	71%	23.6%
CCCS(=O)(=O)Nc1ccc(F)c(C(=O)c2c[nH]c3ncc(Cl)cc23)c1F + Clc1ccc(Nc2nnc(Cc3ccncc3)c3ccccc23)cc1 [vatalanib] (first compound 0.4 µM, partner dose 10 µM)	55.8%	85.7%	72.6%	57.6%	72.8%	47.1%	67%	71%	19.9%	49.1%
CN(c1ncccc1CNc1nc(Nc2ccc3c(c2)CC(=O)N3)ncc1C(F)(F)F)S(C)(=O)=O + OCCn1cc(-c2cnc3nnn(Cc4ccc5ncccc5c4)c3n2)cn1 [PF04217903] (first compound 0.4 µM, partner dose 5 µM)	74.4%	66.8%	89.2%	77.4%	76%	78.3%	84.8%	73.1%	48.7%	94.2%
C=C(c1ccc(C(=O)O)cc1)c1cc2c(cc1C)C(C)(C)CCC2(C)C [Bexarotene] + C=CCNC1=C2C[C@@H](C)C[C@H](OC)[C@H](O)[C@@H](C)/C=C(\C)[C@H](OC(N)=O)[C@@H](OC)/C=C\C=C(/C)C(=O)NC(=CC1=O)C2=O [Tanespimycin] (first compound 10 µM, partner dose 0.01 µM)	64.1%	77.8%	98.9%	59.7%	73.4%	58.4%	34%	67.2%	45.4%	66.2%
NC1(c2ccc(-c3nc4ccn5c(=O)[nH]nc5c4cc3-c3ccccc3)cc2)CCC1 + COc1ccc(Cl)c(Nc2nc3ccccc3nc2NS(=O)(=O)c2cccc(NC(=O)C(C)(C)N)c2)c1 [XL147] (first compound 2 µM, partner dose 4 µM)	47.6%	65.3%	76.7%	60.7%	83.1%	80%	67.7%	70.7%	93.1%	63.8%
CCCS(=O)(=O)Nc1ccc(F)c(C(=O)c2c[nH]c3ncc(Cl)cc23)c1F + NCC(=O)Nc1ccc(-n2nc(C(F)(F)F)cc2-c2ccc3c(ccc4ccccc43)c2)cc1 [OSU03012] (first compound 0.4 µM, partner dose 5 µM)	21%	28.3%	44.4%	47.1%	77.1%	38.6%	56.5%	47.6%	63.1%	39%
NC1(c2ccc(-c3nc4ccn5c(=O)[nH]nc5c4cc3-c3ccccc3)cc2)CCC1 + OCCn1cc(-c2cnc3nnn(Cc4ccc5ncccc5c4)c3n2)cn1 [PF04217903] (first compound 2 µM, partner dose 5 µM)	109%	74.3%	104%	84.2%	94.4%	91.9%	68.9%	77.5%	77.9%	78.3%
CS(=O)(=O)c1ccc(C(=O)Nc2ccc(Cl)c(-c3ccccn3)c2)c(Cl)c1 [vismodegib] + Clc1ccc(Nc2nnc(Cc3ccncc3)c3ccccc23)cc1 [vatalanib] (first compound 5 µM, partner dose 10 µM)	65.9%	62%	75.6%	51.5%	63%	79.9%	91.5%	84.9%	47%	76.2%
CCCS(=O)(=O)Nc1ccc(F)c(C(=O)c2c[nH]c3ncc(Cl)cc23)c1F + Cn1nnc2c(C(N)=O)ncn2c1=O [temozolomide] (first compound 0.4 µM, partner dose 10 µM)	29.4%	95.6%	58.8%	74.8%	105%	61%	69.4%	55.8%	95.1%	41.1%
